EPA's CvTdb concentration-time database
Values joined by “and” are separate entries in the source; they are usually repeats but may differ in a detail not shown here. Equal entries are not always repeated. Further values from the same series stand in other lists.

Key:
[1] = system: Rat; test: concentration in brain after dosing; conditions: 20 min; dosed: 2-Methyltetrahydrofuran; 10 mg/kg; iv; Female; F344
[2] = system: Rat; test: concentration in plasma after dosing; conditions: 0.5 h; dosed: 2-Methyltetrahydrofuran; 30 mg/kg; oral; Female; F344
[3] = system: Rat; test: concentration in plasma after dosing; conditions: 2 h; dosed: 2-Methyltetrahydrofuran; 30 mg/kg; oral; Female; F344
[4] = system: Rat; test: concentration in brain after dosing; conditions: 10 min; dosed: 2-Methyltetrahydrofuran; 30 mg/kg; oral; Male; F344
[5] = system: Rat; test: concentration in brain after dosing; conditions: 5 min; dosed: 2-Methyltetrahydrofuran; 400 mg/kg; oral; Male; F344
[6] = system: Rat; test: concentration in plasma after dosing; conditions: 10 min; dosed: 2-Methyltetrahydrofuran; 10 mg/kg; oral; Male; F344
[7] = system: Rat; test: concentration in plasma after dosing; conditions: 20 min; dosed: 2-Methyltetrahydrofuran; 400 mg/kg; oral; Female; Harlan Sprague Dawley
[8] = system: Rat; test: concentration in brain after dosing; conditions: 8 min; dosed: 2-Methyltetrahydrofuran; 10 mg/kg; oral; Female; F344
[9] = system: Rat; test: concentration in brain after dosing; conditions: 8 h; dosed: 2-Methyltetrahydrofuran; 100 mg/kg; oral; Female; Harlan Sprague Dawley
[10] = system: Rat; test: concentration in plasma after dosing; conditions: dosed: Fluorotelomer alcohol 8+2, 80 mg/kg, oral, Female, Harlan Sprague Dawley
[11] = system: Rat; test: concentration in plasma after dosing; conditions: dosed: Fluorotelomer alcohol 8+2, 80 mg/kg, oral, Female, Harlan Sprague Dawley; remark: listed apart in the source
[12] = system: Rat; test: concentration in plasma after dosing; conditions: dosed: Formamide, 36 mg/kg, oral, Male, Harlan Sprague Dawley
[13] = system: Rat; test: concentration in plasma after dosing; conditions: dosed: Formamide, 600 mg/kg, oral, Male, Harlan Sprague Dawley
[14] = system: Rat; test: concentration in plasma after dosing; conditions: dosed: Formamide, 600 mg/kg, oral, Female, Harlan Sprague Dawley
[15] = system: Rat; test: concentration in plasma after dosing; conditions: 0.25 h; dosed: Pyridine; 10 mg/kg; iv; Male; Harlan Sprague Dawley
[16] = system: Rat; test: concentration in plasma after dosing; conditions: 2 min; dosed: Pyridine; 10 mg/kg; iv; Female; F344
[17] = system: Rat; test: concentration in plasma after dosing; conditions: dosed: Pyridine, 25 mg/kg, oral, Female, F344
[18] = system: mouse; test: concentration in blood after dosing; negative times count back from the end of exposure; conditions: dosed: tert-amyl methyl ether, inhalation, duration: 6 hr, CD-1 (Charles River)
Outline: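 Points were largely digitised from plot screenshots with WebPlotDigitizer or otherwise copied from tables, and they remain in the units each source reported. They come from published in vivo toxicokinetic studies and two structured collections. Sampling and analytical methods follow each source and were often not reported.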

CC1CCCO1 (stereo not given) [2-Methyltetrahydrofuran]
Conditions | concentration in brain [µg/g] | concentration in plasma [µg/mL]
[1] | 3.51 | –
[2] | – | 18
[3] | – | 4.08
[4] | 9.4 | –
[5] | 135 | –
[6] | – | 4.3
[7] | – | 186
[8] | 3.91 | –
[9] | 0.0586 | –

OCCC(F)(F)C(F)(F)C(F)(F)C(F)(F)C(F)(F)C(F)(F)C(F)(F)C(F)(F)F [Fluorotelomer alcohol 8+2]
concentration in plasma [ng/mL]
Conditions | [10] | [11]
0.25 h | 301 | 153
24 h | 11 | 9.08

NC=O [Formamide]
Conditions | concentration in plasma [µg/mL]
[12], 0.25 h | 20.6
[12], 5 h | 50.7
[13], 1 h | 622
[13], 72 h | 36.9
[14], 0.5 h | 735
[14], 48 h | 71.6

c1ccncc1 [Pyridine]
Conditions | concentration in plasma [µg/mL]
[15] | 4.18
[16] | 6.32

[17]
Conditions | concentration in plasma [µg/mL]
4 h | 17.1
5 min | 9.57

CCC(C)(C)O [tertiary amyl alcohol]
[18]
Conditions | concentration in blood
0.1308 h, 2500 ppm, female | 204 µg/mL
0.1313 h, 2500 ppm, female | 201 µg/mL
0.1316 h, 2500 ppm, female | 199 µg/mL
0.2591 h, 2500 ppm, female | 192 µg/mL
0.2603 h, 2500 ppm, female | 185 µg/mL
0.2715 h, 100 ppm, male | 0.614 µg/mL
0.2886 h, 2500 ppm, female | 206 µg/mL
0.295 h, 100 ppm, male | 0.741 µg/mL
0.2966 h, 100 ppm, male | 0.955 µg/mL
0.2981 h, 100 ppm, male | 1.16 µg/mL
0.4487 h, 100 ppm, male | 0.201 µg/mL
0.4517 h, 100 ppm, male | 0.595 µg/mL
0.5742 h, 2500 ppm, female | 199 µg/mL
0.6349 h, 100 ppm, female | 0.278 µg/mL
0.6405 h, 2500 ppm, female | 179 µg/mL
0.6424 h, 2500 ppm, female | 167 µg/mL
0.6782 h, 100 ppm, female | 0.554 µg/mL
0.9478 h, 500 ppm, female | 20.8 µg/mL
0.9588 h, 2500 ppm, female | 164 µg/mL
0.9668 h, 100 ppm, male | 0.149 µg/mL
0.9781 h, 500 ppm, female | 17 µg/mL and 18.5 µg/mL
0.9818 h, 100 ppm, female | 0.335 µg/mL and 0.287 µg/mL
0.9884 h, 100 ppm, male | 0.025 µg/mL
0.9893 h, 2500 ppm, female | 172 µg/mL
0.9962 h, 2500 ppm, female | 128 µg/mL
1.003 h, 100 ppm, female | 0.125 µg/mL
1.867 h, 100 ppm, male | 0.00241 µg/mL
1.892 h, 100 ppm, female | 0.0483 µg/mL
2.106 h, 2500 ppm, female | 102 µg/mL
2.107 h, 2500 ppm, female | 101 µg/mL
2.108 h, 2500 ppm, female | 91.4 µg/mL
2.111 h, 2500 ppm, female | 74.1 µg/mL
3.964 h, 100 ppm, male | 0.0021 µg/mL
4.082 h, 100 ppm, female | 0.0362 µg/mL
4.14 h, 2500 ppm, female | 34.8 µg/mL
4.145 h, 2500 ppm, female | 2.36 µg/mL
4.164 h, 500 ppm, female | 0.122 µg/mL
4.177 h, 2500 ppm, female | 1.09 µg/mL
9.983 h, 100 ppm, male | 0.00869 µg/mL
9.989 h, 500 ppm, female | 0.38 µg/mL
10.06 h, 2500 ppm, female | 0.995 µg/mL
10.24 h, 100 ppm, female | 0.0578 µg/mL
17.88 h, 500 ppm, female | 0.214 µg/mL
18.11 h, 2500 ppm, female | 1.28 µg/mL
18.2 h, 100 ppm, female | 0.0392 µg/mL
22 s, 100 ppm, female | 7.52 µg/mL and 4.77 µg/mL and 3.12 µg/mL
58 min, 100 ppm, male | 0.123 µg/mL
245 s, 500 ppm, female | 53.6 µg/mL and 27.3 µg/mL
254 s, 2500 ppm, female | 185 µg/mL
354 s, 500 ppm, female | 26.8 µg/mL and 58.3 µg/mL

[18], during exposure
Conditions | concentration in blood
-216 s, 100 ppm, male | 1.5 µg/mL
-212 s, 100 ppm, male | 1.66 µg/mL
-137 s, 100 ppm, male | 1.42 µg/mL
-136 s, 100 ppm, male | 1.45 µg/mL
-56 s, 100 ppm, female | 1.92 µg/mL
-6 h, 100 ppm, female | 0.0192 µg/mL
-5.909 h, 500 ppm, female | 0.815 µg/mL
-5.843 h, 2500 ppm, female | 5.9 µg/mL
-5.805 h, 100 ppm, female | 0.238 µg/mL and 0.39 µg/mL
-5.781 h, 2500 ppm, female | 17.3 µg/mL and 14.8 µg/mL
-5.78 h, 2500 ppm, female | 8.86 µg/mL
-5.757 h, 500 ppm, female | 5.4 µg/mL and 4.68 µg/mL and 8.35 µg/mL
-5.727 h, 500 ppm, female | 4.18 µg/mL and 2.75 µg/mL and 1.83 µg/mL
-5.696 h, 100 ppm, female | 0.562 µg/mL and 0.647 µg/mL
-5.575 h, 500 ppm, female | 9.47 µg/mL
-5.566 h, 100 ppm, female | 0.781 µg/mL
-5.545 h, 500 ppm, female | 11.5 µg/mL
-5.523 h, 100 ppm, female | 0.933 µg/mL
-5.404 h, 2500 ppm, female | 25.7 µg/mL
-5.213 h, 2500 ppm, female | 17.3 µg/mL
-5.15 h, 500 ppm, female | 8.65 µg/mL
-5.068 h, 100 ppm, female | 1.12 µg/mL
-5.059 h, 500 ppm, female | 9.67 µg/mL
-5.046 h, 100 ppm, female | 0.951 µg/mL and 1.08 µg/mL
-5.029 h, 500 ppm, female | 16.7 µg/mL and 21.4 µg/mL and 18.5 µg/mL
-4.959 h, 100 ppm, female | 1.29 µg/mL
-4.902 h, 2500 ppm, female | 54.8 µg/mL
-4.874 h, 2500 ppm, female | 74.2 µg/mL
-4.871 h, 2500 ppm, female | 58.2 µg/mL
-3.998 h, 500 ppm, female | 30.3 µg/mL and 33 µg/mL
-3.967 h, 500 ppm, female | 25.7 µg/mL and 32.7 µg/mL
-3.962 h, 100 ppm, female | 1.01 µg/mL
-3.962 h, 2500 ppm, female | 103 µg/mL
-3.96 h, 2500 ppm, female | 91.5 µg/mL
-3.957 h, 2500 ppm, female | 71.7 µg/mL
-3.94 h, 100 ppm, female | 2.15 µg/mL and 1.91 µg/mL
-2.025 h, 500 ppm, female | 44.3 µg/mL and 48.9 µg/mL
-1.943 h, 100 ppm, male | 2.85 µg/mL
-1.942 h, 2500 ppm, female | 118 µg/mL
-1.919 h, 2500 ppm, female | 177 µg/mL
-1.916 h, 2500 ppm, female | 157 µg/mL
-1.915 h, 2500 ppm, female | 152 µg/mL
